Experimental data reported in PubChem BioAssay AID504332 (National Center for Advancing Translational Sciences (NCATS), 2011).
Out of some 350,000 compounds screened, about 31,000 (8.9%) were called active. The inconclusive results got no clear call from the source; some entries with a clear call stand among them for comparison. Calls follow the shape of the dose curve; as a rule, active = well fitted inhibition curve with a large enough effect; inconclusive = small, poorly fitted or top-dose-only effect; inactive = no such curve, though single readings can be large or run the other way. A potency beside an inconclusive call is a rough fit, not a confirmed value. The source holds several records for some structures; these can differ, active in one and inactive in another.

target: Histone-lysine N-methyltransferase EHMT2 (Homo sapiens) (UniProt Q96KQ7); experiment: qHTS Assay for Inhibitors of Histone Lysine Methyltransferase G9a; conditions: G9a H3K9 monomethylation, AlphaScreen, 2 h; activity, negative = inhibition: at 59 µM (top of the series) unless noted; also: nearly all actives have a fitted effect of over 75% in size
In short: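 Compounds were preincubated with 20 nM G9a for 15 min, after which biotinylated H3K9 peptide (500 nM) and SAM (20 uM) started a 2 h room-temperature reaction. Monomethylated product was quantified by antibody-based AlphaScreen chemiluminescence.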
% is scaled to controls: 0 for no effect and ±100 for the full control effect; potency is read from the fitted curve at half-maximal effect; tags tell the direction and shape of the fitted curve.

UniProt Q96KQ7, sequence (Q96KQ7 whole entry, looked up): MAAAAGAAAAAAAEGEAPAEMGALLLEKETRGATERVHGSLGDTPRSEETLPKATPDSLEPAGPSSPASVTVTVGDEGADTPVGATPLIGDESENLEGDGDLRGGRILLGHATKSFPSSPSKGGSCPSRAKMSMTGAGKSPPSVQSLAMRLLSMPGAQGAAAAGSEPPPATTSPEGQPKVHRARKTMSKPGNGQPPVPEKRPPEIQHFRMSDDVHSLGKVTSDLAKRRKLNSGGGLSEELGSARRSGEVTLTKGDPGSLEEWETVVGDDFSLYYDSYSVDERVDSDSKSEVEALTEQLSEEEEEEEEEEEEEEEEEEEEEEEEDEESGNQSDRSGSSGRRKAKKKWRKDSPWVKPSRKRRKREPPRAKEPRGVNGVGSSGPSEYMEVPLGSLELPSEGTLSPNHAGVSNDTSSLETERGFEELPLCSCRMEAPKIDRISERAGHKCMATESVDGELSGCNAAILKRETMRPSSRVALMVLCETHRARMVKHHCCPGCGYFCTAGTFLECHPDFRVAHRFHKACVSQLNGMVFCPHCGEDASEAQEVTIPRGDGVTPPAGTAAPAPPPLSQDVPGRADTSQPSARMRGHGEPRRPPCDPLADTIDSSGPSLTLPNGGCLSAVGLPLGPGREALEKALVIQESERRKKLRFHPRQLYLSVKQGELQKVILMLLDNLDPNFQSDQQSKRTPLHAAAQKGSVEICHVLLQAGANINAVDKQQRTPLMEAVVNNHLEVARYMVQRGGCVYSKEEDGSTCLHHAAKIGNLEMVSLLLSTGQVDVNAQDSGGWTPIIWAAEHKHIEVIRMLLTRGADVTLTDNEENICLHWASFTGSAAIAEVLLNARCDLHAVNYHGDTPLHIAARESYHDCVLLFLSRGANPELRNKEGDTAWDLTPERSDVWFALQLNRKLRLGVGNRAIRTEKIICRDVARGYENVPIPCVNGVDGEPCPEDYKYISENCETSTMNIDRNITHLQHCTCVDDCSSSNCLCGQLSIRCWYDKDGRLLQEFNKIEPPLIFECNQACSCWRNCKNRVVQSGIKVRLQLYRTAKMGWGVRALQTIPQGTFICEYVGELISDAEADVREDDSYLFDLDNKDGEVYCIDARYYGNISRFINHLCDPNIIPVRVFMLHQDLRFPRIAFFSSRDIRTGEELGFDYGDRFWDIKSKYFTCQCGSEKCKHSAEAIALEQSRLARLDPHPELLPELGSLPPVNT

| SMILES | activity, negative = inhibition | Potency |
| --- | --- | --- |
| COc1ccc(N(Cc2cccs2)C(=O)c2ccc(OCC(C)C)cc2)cc1 | inactive: 25.5% | – |
| Cc1n[nH]c(C)c1CCCCOc1ccccc1[N+](=O)[O-] | – | inconclusive: 70.8 µM [inhibitor, single point] |
| COC(=O)[C@@H]1[C@H]2C[C@H]3c4[nH]c5ccccc5c4CCN3C[C@@H]2CC[C@@H]1O | inactive: 20.1% [at 12.7 µM] | active: 21.2 µM |
| CCCc1nn2c(=O)cc(COC(=O)c3ccccc3NC(=O)c3cccs3)nc2s1 | inactive: 4.12% | – |
| CN1CCN(c2ccccc2NC(=O)c2ccc(-c3ccccc3[N+](=O)[O-])o2)CC1 | – | inconclusive: 50.1 µM [inhibitor, single point] |
| Cc1cc(C)cc(Nc2nc(-c3ccc(S(=O)(=O)N4CCCC4)cc3)cs2)c1 | – | inconclusive: 25.1 µM [inhibitor, single point] |
| Cc1ccc2c(c1)N(CCC(=O)NCCCN1CCCC1)C(=O)CO2 | – | inconclusive: 89.1 µM [inhibitor, single point] |
| Clc1ccc(-c2cn3cc(Br)ccc3n2)cc1Cl | – | inconclusive: 25.1 µM [inhibitor, single point] |
| CCC(C)NC(=O)CS(=O)Cc1nc(-c2ccccc2C)oc1C (configuration not stated) | – | inconclusive: 89.1 µM [inhibitor, single point] |
| Cc1noc(C)c1-c1nc(NC2CCNCC2)c2ccccc2n1 | inactive: -15.2% [at 0.501 µM] | – |
| O=C(CSc1nnc(C2CC2)n1-c1ccccc1)NCc1ccco1 | – | active: 79.4 µM |
| O=C(Cn1ccc([N+](=O)[O-])n1)N1CCc2ccccc21 | – | inconclusive: 79.4 µM [inhibitor, single point] |
| CC1CCN(S(=O)(=O)c2ccc(NC(=O)CN3CCOCC3)cc2)CC1 | – | inconclusive: 6.31 µM [inhibitor, single point] |
| CC(=O)n1cc(-c2ccncc2)c2ccccc21 | – | inconclusive: 35.5 µM [inhibitor, single point] |
| COc1cc(C)c(Cl)cc1S(=O)(=O)n1cnc(C)c1 | – | inconclusive: 89.1 µM [inhibitor, single point] |
| C=CCN1C(=O)/C(=C/c2ccc(-c3ccc(F)cc3)o2)SC1=S | – | inconclusive: 3.16 µM [inhibitor, partial curve, poor fit] |
| COc1cc(/C=C2/C(=O)NN(c3cccc(C)c3)C2=O)ccc1OC(=O)c1ccco1 | – | inconclusive: 14.1 µM [inhibitor, partial curve, poor fit] |
| O=c1[nH]c2ccc(S(=O)(=O)NCc3ccccn3)cc2s1 | – | inconclusive: 31.6 µM [inhibitor, single point] |
| O=C(c1ccc2ccccc2c1)N1CCN(c2ccc([N+](=O)[O-])c(N3CCOCC3)c2)CC1 | – | inconclusive: 35.5 µM [inhibitor, full curve, poor fit] |
| COc1ccc(C2N(c3cc(Cl)ccc3OC)C(=O)C3CCCN32)cc1OC (configuration not stated) | – | inconclusive: 79.4 µM [inhibitor, single point] |
| COc1ccc(C(=O)NCC(c2ccc3c(c2)OCO3)N2CCN(c3ccccc3F)CC2)cc1 (configuration not stated) | inactive: -26.7% | – |
| COc1cc(/C(C)=N/N2CCN(Cc3ccc(C)cc3)CC2)ccc1O | inactive: 9.96% [at 0.501 µM] | – |

| SMILES | activity, negative = inhibition | Potency |
| --- | --- | --- |
| COc1ccc(-c2[nH]c(-c3ccccc3)nc2SCC(=O)Nc2nccs2)cc1 | – | active: 11.2 µM |
| COc1cccc(Nc2nc(N)c([N+](=O)[O-])c(NCc3ccccc3)n2)c1 | – | active: 44.7 µM |
| Clc1ccc(-n2c(SCc3nc4ccccc4[nH]3)nnc2-c2ccncc2)cc1 | – | inconclusive: 50.1 µM [inhibitor, partial curve] |
| CCOC(=O)CNC(=O)CSc1ncnc2c1cnn2-c1ccc(C)cc1 | – | inconclusive: 89.1 µM [inhibitor, single point] |
| CCOC(=O)/C=C/C(=O)Nc1ccccc1-c1ccccc1NC(=O)/C=C/C(=O)OCC | inactive: -8.23% | – |
| Cc1nc2nc(-c3ccco3)nn2c(C)c1Cl | – | inconclusive: 39.8 µM [inhibitor, single point] |
| O=C(Cc1c(Cl)cccc1Cl)N1CCN(S(=O)(=O)c2cccs2)CC1 | inactive: -11.2% [at 12.7 µM] | – |
| CCCc1ccc(-c2cc(C(=O)Nc3ccc([N+](=O)[O-])cn3)c3ccccc3n2)cc1 | – | inconclusive: 79.4 µM [inhibitor, single point] |
| CC1CC(C)CN(c2ccc(C(=O)NCc3ccc4c(c3)OCO4)cc2[N+](=O)[O-])C1 (configuration not stated) | – | inconclusive: 20 µM [inhibitor, single point] |
| COc1cccc(N=Nc2c(=O)[nH]n3c(=O)c4c([nH]c23)CCC4)c1 | – | inconclusive: 31.6 µM [inhibitor, single point] |
| C=CCn1c(SCc2ccc(F)cc2)nc2c1c(=O)[nH]c(=O)n2C | – | inconclusive: 89.1 µM [inhibitor, single point] |
| CC/C(C)=N/Nc1ccc(S(=O)(=O)N2CCCC2)cc1[N+](=O)[O-] | – | active: 17.8 µM |
| O=C(NNc1c(F)c(F)cc(F)c1F)c1ccc(Cl)nc1 | – | active: 50.1 µM |
| O=C(NS(=O)(=O)Nc1ccc(Cl)cc1)c1c[nH]c2ccccc12 | – | inconclusive: 70.8 µM [inhibitor, single point] |
| CCS(=O)(=O)NCC(c1cccnc1)N1CCN(c2ccccc2)CC1 (configuration not stated) | – | inconclusive: 25.1 µM [inhibitor, partial curve, poor fit] |
| COc1cc(C)c(NC(=O)C2CCN(S(=O)(=O)c3cccs3)CC2)cc1OC | – | inconclusive: 1.58 µM [inhibitor, partial curve, poor fit] |
| CCNC(=S)N/N=C/c1ccc(F)cc1 | inactive: 28.3% [at 102 µM] | – |
| COc1cc(CC(=O)Nc2ccc3c(c2)CCC3)cc(OC)c1OC | inactive: 3.9% | – |
| CCc1ccc(NC(=O)Cn2c(=O)n(CCCCC(=O)NCCc3ccc(Cl)cc3)c(=O)c3ccccc32)cc1 | inactive: 5.87% | – |
| O=C(NCCCl)NNc1c(Cl)cc(Cl)cc1Cl | – | inconclusive: 2.24 µM [inhibitor, full curve, poor fit] |
| COc1ccc(Cl)cc1C(=O)Nc1cccc(-c2ccc3nncn3n2)c1 | – | inconclusive: 7.08 µM [inhibitor, full curve, poor fit] |
| O=C(c1cccc(NS(=O)(=O)c2ccc(F)c(F)c2)c1)N1CCCCC1 | – | inconclusive: 89.1 µM [inhibitor, partial curve, poor fit] |

| SMILES | activity, negative = inhibition | Potency |
| --- | --- | --- |
| N=c1c2c(ncn1CCCO)Oc1c(ccc3ccccc13)C2c1ccccc1 (configuration not stated) | – | inconclusive: 100 µM [inhibitor, single point] |
| CC(=O)c1ccc(N(C(=O)CNC(=O)c2ccco2)C(C(=O)NCC2CCCO2)c2ccccc2)cc1 (configuration not stated) | – | inconclusive: 35.5 µM [inhibitor, partial curve, poor fit] |
| CSCCOC(=O)c1[nH]c2c(c1C)C(=O)CC(c1ccco1)C2 (configuration not stated) | – | active: 22.4 µM |
| CCOC(=O)c1c(NC(N)=O)nc2n1CCC2 | inactive: 23.1% | – |
| COCCNC(=O)C(c1ccncc1)N(Cc1ccccc1)C(=O)Cn1nnc2ccccc21 (configuration not stated) | – | inconclusive: 39.8 µM [inhibitor, partial curve, poor fit] |
| CCOC(=O)C(NC(C)=O)C(=O)Nc1ccc(C)cc1C (configuration not stated) | – | inconclusive: 1.78 µM [inhibitor, partial curve, poor fit] |
| N#Cc1ccc(CSc2nnc(NC(=O)c3ccc(=O)[nH]c3)s2)cc1 | – | inconclusive: 89.1 µM [inhibitor, partial curve, poor fit] |
| COc1ccc(Cc2c(O)nc(SCC(=O)NC34CC5CC(CC(C5)C3)C4)[nH]c2=O)cc1 | – | active: 44.7 µM |
| CN(Cc1ccc(Cl)c(Cl)c1)C(=O)CN1C(=O)NC2(CCCC2)C1=O | – | inconclusive: 79.4 µM [inhibitor, partial curve, poor fit] |
| COc1ccc2cc3c(N)nn(C(=O)c4ccc(OC)c(OC)c4)c3nc2c1 | – | inconclusive: 44.7 µM [inhibitor, partial curve, poor fit] |
| Cc1ccc(C(=O)N/C(=C/c2ccco2)C(=O)N2CCOCC2)cc1 | – | inconclusive: 89.1 µM [inhibitor, single point] |
| O=C(CSc1nc(O)cc(=O)[nH]1)Nc1ccc2c(c1)CCC2 | – | inconclusive: 3.98 µM [inhibitor, full curve, poor fit] |
| O=C(COC(=O)c1cc(=O)[nH]c2ccccc12)Nc1cccc(S(=O)(=O)N2CCOCC2)c1 | inconclusive: -52.7% [inhibitor] | – |
| O/N=C1\CCCc2c1nc(-c1ccccc1F)n2O | – | active: 22.4 µM |
| CCN(CC(=O)NC(=O)NC1CCCCC1)Cc1nc2ccccc2c(=O)[nH]1 | – | inconclusive: 0.794 µM [inhibitor, full curve, poor fit] |
| CC(=O)c1ccc(NC(=O)COC(=O)c2ccccc2N=Nc2ccc(N(C)C)cc2)cc1 | – | active: 12.6 µM |
| O=[N+]([O-])c1ccc(Oc2c(F)c(F)nc(N3CCCC3)c2F)cc1 | – | inconclusive: 35.5 µM [inhibitor, single point] |
| C=C1c2cc(C)ccc2NC(=O)N1c1ccc(C)cc1 | – | active: 10 µM |
| Cc1ccccc1NC(=S)N1CCC(NC(=O)c2ccco2)CC1 | inactive: -18.3% | – |
| CCN1CCN(c2ncc(C(=O)Nc3cc(Cl)c(OC)cc3OC)c3ccccc23)CC1 | – | inconclusive: 22.4 µM [inhibitor, single point] |
| Cc1ccc(N(CC(=O)N2CCCCCC2)S(C)(=O)=O)cc1Cl | inactive: 15% [at 0.501 µM] | – |
| COc1cc(C(=S)N2CCCCC2)ccc1OCC(=O)N1CCCC1 | inactive: -5.97% [at 12.7 µM] | – |
